In paper PMC9574860, “Chemical Toolkit for PARK7: Potent, Selective, and High-Throughput” (Journal of Medicinal Chemistry, 2022) one finds Inhibition % data, which are given here for 81 compounds.

In all, about 7,900 compounds went through this assay and about 400 (5.1%) showed an effect of 50% or more. This is one part of the list.

Sequence of Parkinson's disease protein 7 (PARK7/DJ1) (Q99497 whole entry, looked up, the tested form may be a part): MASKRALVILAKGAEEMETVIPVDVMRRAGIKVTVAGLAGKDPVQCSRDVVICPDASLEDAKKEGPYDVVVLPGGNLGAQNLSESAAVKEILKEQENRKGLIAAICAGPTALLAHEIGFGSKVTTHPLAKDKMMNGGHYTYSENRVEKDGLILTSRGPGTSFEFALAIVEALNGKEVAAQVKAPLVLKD

This assay has as its target Parkinson's disease protein 7 (PARK7/DJ1) (human, UniProt Q99497). Briefly: primary screen, percent inhibition; read as competition with a fluorescent probe by fluorescence polarization; higher = more effect of the substance. The settings on record: 100 µM. In a few lines:
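Covalent fragments at 100 μM final were incubated 2 h with 0.2 μM PARK7, then 20 nM probe JYQ-107 added for a further 2 h. Fluorescence polarization read at 480/520 nm; relative FP loss versus reference controls gave remaining enzyme activity.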
For the compound `Cn1cc(B2OC(C)(C)C(C)(C)O2)cn1`, the Inhibition % came to 4.89%. The same measure for `Cc1ccc(OCc2ccccc2Cl)c(B(O)O)c1`: -0.0143%. Turning to `C=CC(=O)N1CC2COCC2(C)C1` (stereo not drawn), the Inhibition % worked out at 9.87%.

Regarding `CC(NS(=O)(=O)C=Cc1ccccc1)C1CCCO1` (stereo not drawn), the Inhibition % was 7.19%. The same measure for `Cc1c(Cl)ccc(S(=O)(=O)n2ccnc2)c1Cl`: 11.8%. As for `C=CC(=O)NCC1(c2ncccc2C)CC1`, the figure is 1.59%. On to `CN(Cc1ccccc1)C(=O)C=CC(=O)O`, for which the Inhibition % came to 23.5%. The same measure for `C=CC(=O)N1Cc2ccccc2OC(C)C1` (stereo not drawn): 11.8%; for `Cc1ccc(C=CS(=O)(=O)NC2CCS(=O)(=O)C2)cc1` (stereo not drawn): 4.34%. As for `O=C1OCCC1N1CCCCCCC1` (stereo not drawn), the figure is 4.79%; as for `C=CC(=O)NC1CC(=O)N(C(C)(C)C)C1` (stereo not drawn), 2.35%; as for `O=C(O)C1CCCN(C(=O)C=Cc2ccc(Cl)s2)C1` (stereo not drawn), 13.1%. As for `O=C(CN1CCSC1=O)Nc1cn[nH]c1`, the figure is 11.7%; as for `O=C(O)C1CC(O)CN1C(=O)C=Cc1ccc(F)cc1` (stereo not drawn), 2.28%.

For the compound `C1CC(CC2CO2)CO1` (stereo not drawn), the Inhibition % is 9.78%. For `O=S(=O)(F)c1ccc(S(=O)(=O)Nc2ccsc2)cc1`, the Inhibition % came out at 27.7%. With `C=CC(=O)NCC1OCCc2ccccc21` (stereo not drawn), the Inhibition % is 7.98%. The same measure for `C=CC(=O)N[C@H]1C[C@H](c2ccccc2Cl)C1`: 6.65%. The same measure for `O=Cc1cccc(C(=O)O)c1O`: 24.2%; for `SCc1cccc2cccnc12`: 5.59%; for `CC1(C)OB(C2=CCOC2)OC1(C)C`: 8.39%. With `O=C(CCl)NCCc1c(F)cccc1F`, the Inhibition % was determined as 42.8%. The same measure for `Cc1ccc(C)c(S(=O)(=O)n2ccc(C)n2)c1`: 15.2%; for `CCCN1CCCN(c2ccc(C#N)nc2)CC1`: 7.34%. The same measure for `O=C(NC1CCN(C(=O)CCl)CC1)c1ccccc1`: 18.9%; for `O=C(O)C=CC(=O)NCc1cccnc1`: 2.99%.

Regarding `Cc1cc(C(=O)Cn2cnc(C#N)n2)c(C)s1`, the Inhibition % was 2.94%. With `O=C(O)C(S)c1ccccc1` (stereo not drawn), the Inhibition % is listed as 89.9%. The same measure for `CC(NC(=O)C1CSC(=O)N1)c1csc2ccccc12` (stereo not drawn): 4.69%.

Regarding `CCOc1ccc(S(=O)(=O)n2ccnc2C)c(C)c1C`, the Inhibition % came out at 0.685%. The same measure for `C=CC(=O)NC1CCCCC1C(C)C` (stereo not drawn): 1.11%; for `CC(C)c1ccc(C(=O)NCc2cc(=O)[nH]c(S)n2)cc1`: 10.5%. The same measure for `Cl.Cl.NCC1CCCCN1C(=O)C=Cc1cccnc1` (stereo not drawn): 11.4%.

As to `O=C1CN=C(S)N1c1ccccc1F`, the Inhibition % amounted to 3.7%. As for `Cc1nc(C2(NC(=O)CCl)CCCCC2)no1`, the figure is 10.8%. As for `Cn1ccc(-c2nc(C#N)cs2)n1`, the figure is -0.539%; as for `O=C1CN(C(=O)CCl)c2ccccc2N1`, 56.7%; as for `C=CC(=O)N1CCN2C(=O)CCC2C1` (stereo not drawn), 5.02%. As for `CCn1nc(-c2nccs2)cc1B1OC(C)(C)C(C)(C)O1`, the figure is 2.75%; as for `CC(O)(CC1CO1)C1CC1` (stereo not drawn), 2.84%.

On to `N#Cc1cccc(N2CCCCC2CC(N)=O)n1` (stereo not drawn), for which the Inhibition % was determined as 28.3%. The same measure for `C=CC(=O)N1CCCC(c2ncc(C)s2)C1` (stereo not drawn): 7.9%; for `C=CC(=O)Nc1cnn(CC(F)F)c1`: 6.39%; for `Cn1c(=O)c2c(nc(Cl)n2CCS(=O)(=O)F)n(C)c1=O`: 3.18%. For the compound `CC1CC1C(=O)N1CCC(CS(=O)(=O)F)C1` (stereo not drawn), the Inhibition % worked out at 96.8%. As for `CC1CN(CCCNC(=O)CCl)CC(C)O1.Cl` (stereo not drawn), the figure is 15.6%; as for `CC(C)CNC(=O)c1ccccc1NC(=O)CCl`, 8.8%. The same measure for `O=C(CCl)c1ccc(F)cc1`: 32.3%. As for `O=C1CC(CC(=O)N2CC3C4CCC(C4)C3C2)CO1` (stereo not drawn), the figure is 4.62%; as for `COc1ccccc1Cn1cnc(C#N)n1`, -1.08%. Consider `C=CC(=O)N1CCN(C2CC2)c2c(Cl)cccc21`, for which the Inhibition % is 2.34%.

As to `Cc1csc(N(C(=O)CCl)c2ccccc2)n1`, the Inhibition % worked out at 87.3%.

For the compound `N#Cc1ncn(CC(N)=O)n1`, the Inhibition % was found to be 8.69%. Turning to `CC1CN(C(=O)CCl)CC(C)O1` (stereo not drawn), the Inhibition % is 19.8%. The same measure for `Cc1ccc(C(C)NC(=O)Cn2cnnc2C#N)cc1C` (stereo not drawn): 6.52%; for `C=CC(=O)N1CCn2c(cc3cc(Cl)ccc32)C1`: 14.2%. The same measure for `CC1(C)OB(c2ccc(CN3CCCCC3)cc2)OC1(C)C`: 2.94%; for `CN(Cc1ccc(OC(F)F)cc1)C(=O)CCl`: 51.1%; for `N#CC(=Cc1ccc(F)c(F)c1)C(=O)NC1CC1`: 8.96%. As for `OC1(C2CO2)CCCC1` (stereo not drawn), the figure is 3.59%; as for `Cn1nccc1C=CC(=O)N1CCC(C)(C(=O)O)C1` (stereo not drawn), 1.54%; as for `Cc1ccc(C2=NN(C(=O)CCl)C(c3ccco3)C2)o1` (stereo not drawn), 11.4%. Turning to `O=S(=O)(F)c1ccccc1Br`, the Inhibition % is given as 44.3%.

In the case of `CCCc1cc(=O)[nH]c(S)n1`, the Inhibition % was determined as 8.86%. The same measure for `O=C(NCCCC1CCCCC1O)c1cccnc1S` (stereo not drawn): 6.16%. As to `C=CC(=O)NCC12CCC(CC1)C2`, the Inhibition % turned out to be 5.55%. The same measure for `Cc1ccc(C(NC(=O)CCl)C2CC2)cc1` (stereo not drawn): 1.1%.

With `C=CC(=O)N(Cc1ccccc1Cl)C1COC1`, the Inhibition % stood at 29.3%.

Regarding `CC(CCl)Cn1ccnc1.Cl` (stereo not drawn), the Inhibition % came to 6.72%. The same measure for `Cc1coc(B2OC(C)(C)C(C)(C)O2)c1`: 4.69%. As for `CS(=O)(=O)O[C@H]1CC[C@H](c2ccccc2)CC1`, the figure is 11.3%; as for `CC(C)(C)c1nc(C#N)c(N2CCC(C(N)=O)CC2)o1`, 11.7%. On to `C=CC(=O)NC1CC(C(C)(C)C)C1` (stereo not drawn), for which the Inhibition % is 14%. The same measure for `Cc1c(B2OC(C)(C)C(C)(C)O2)ccc2ccccc12`: 3.03%; for `C=CC(=O)NCC1(C)CCOC1` (stereo not drawn): 9.38%; for `N#CSCc1nc2ccccc2[nH]1`: 24.5%.

In the case of `CC(=O)NCCc1cc(C(=O)CCl)ccc1F`, the Inhibition % amounted to 83.3%. As for `O=S(=O)(c1cc(Cl)ccc1Cl)n1ccnc1`, the figure is 7.81%; as for `Cl.O=C(CCl)Nc1ncc[nH]1`, 1.78%. As for `O=S(=O)(F)c1ccc(F)cc1`, the figure is 2.62%; as for `Cc1cc(C(=O)CCl)c(C)n1-c1ncn[nH]1`, 60%.
